B1: Caulobacter ParB omega fusion; a variant is named by its letters at X, in order, B8GW30 (parent)
chain: MESVVVGEPGMSEGRRGLGRGLSALLGEVDAAPAQAPGEQLGGSREAPIEILQRNPDQPRRTFREEDLEDLSNSIREKGVLQPILVRPSPDTAGEYQIVAGERAWRAAQRAGLKTVPIMVRELDDLAVLEIGIIENVQRADLNVLEEALSYKVLMEKFERTQENIAQTIGKSXSHVANXMRLLXLPDEVQSYLVSGELTAXHARAIAAAADPVALAKQIIEGGLSVRETEALARKAPNLSAGKSKGGRPPRVKDTDTQALESDLSSVLGLDVSIDHRGSTGTLTITYATLEQLDDLCNRLTRGI

The full ranking holds about 81,000 sequences; the median of “one-hybrid fitness for binding NBS DNA” is about -0.1, and the highest 2% start at about 0.36. Some of the results follow.

Variants of B1 are the subject of this assay. As to the kind of experiment: one-hybrid fitness for binding NBS DNA (the Noc-binding site; scaled: cognate 1, non-cognate 0); higher = stronger binding. The following applies: with NBS DNA site. The method, boiled down: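 Values were rescaled so that cognate is 1 and non-cognate is 0. Each is a fitness, the log change in a variant's read ratio to wild type from Illumina reads of plasmids before and after selection, with three replicate libraries pooled and variants under 10 reads dropped. Selection of the Caulobacter ParB libraries, four specificity codons randomised, used E. coli USO with a HIS3 reporter, site 19 bp from the promoter, on M9-minus-histidine with 0.1 mM IPTG and 5 mM 3-AT for 48 hours at 37°C.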
As for VNYE, the “one-hybrid fitness for binding NBS DNA” value was no more than 0.2.

For the variant YVRM, the “one-hybrid fitness for binding NBS DNA” value was no more than 0.2.

With FMGS, the “one-hybrid fitness for binding NBS DNA” value is no more than 0.2.

Consider NMRF, for which the “one-hybrid fitness for binding NBS DNA” value was no more than 0.2.

Regarding APGF, the “one-hybrid fitness for binding NBS DNA” value was no more than 0.2.

HSIC: the “one-hybrid fitness for binding NBS DNA” value is no more than 0.2.

Consider NKWT, for which the “one-hybrid fitness for binding NBS DNA” value was no more than 0.2.

KHES: the “one-hybrid fitness for binding NBS DNA” value is no more than 0.2.

For TFGE, the “one-hybrid fitness for binding NBS DNA” value was no more than 0.2.

Regarding YINS, the “one-hybrid fitness for binding NBS DNA” value was no more than 0.2.

On to MDRM, for which the “one-hybrid fitness for binding NBS DNA” value is no more than 0.2.

For TTSS, the “one-hybrid fitness for binding NBS DNA” value was no more than 0.2.

On to AVMM, for which the “one-hybrid fitness for binding NBS DNA” value is no more than 0.2.

On to QATI, for which the “one-hybrid fitness for binding NBS DNA” value was no more than 0.2.

As to RRFR, the “one-hybrid fitness for binding NBS DNA” value is 0.728.

As to GKLC, the “one-hybrid fitness for binding NBS DNA” value was no more than 0.2.

On to CYNL, for which the “one-hybrid fitness for binding NBS DNA” value was no more than 0.2.

As to IKSK, the “one-hybrid fitness for binding NBS DNA” value is no more than 0.2.

VCES: the “one-hybrid fitness for binding NBS DNA” value was no more than 0.2.

For the variant WRNM, the “one-hybrid fitness for binding NBS DNA” value was no more than 0.2.

Regarding TTDV, the “one-hybrid fitness for binding NBS DNA” value is no more than 0.2.

As to HPAN, the “one-hybrid fitness for binding NBS DNA” value was no more than 0.2.

For the variant HLQR, the “one-hybrid fitness for binding NBS DNA” value was no more than 0.2.

On to RKKA, for which the “one-hybrid fitness for binding NBS DNA” value worked out at 0.514.

With AMDS, the “one-hybrid fitness for binding NBS DNA” value was no more than 0.2.

For the variant STHM, the “one-hybrid fitness for binding NBS DNA” value is no more than 0.2.

Take GVPC: the “one-hybrid fitness for binding NBS DNA” value is no more than 0.2.

For VIVV, the “one-hybrid fitness for binding NBS DNA” value is no more than 0.2.

Regarding MQAA, the “one-hybrid fitness for binding NBS DNA” value is no more than 0.2.

With KYKW, the “one-hybrid fitness for binding NBS DNA” value is no more than 0.2.

With QISP, the “one-hybrid fitness for binding NBS DNA” value was no more than 0.2.

As to MMRN, the “one-hybrid fitness for binding NBS DNA” value was no more than 0.2.

In the case of QFSG, the “one-hybrid fitness for binding NBS DNA” value was no more than 0.2.

For WRFT, the “one-hybrid fitness for binding NBS DNA” value was no more than 0.2.

With CMMS, the “one-hybrid fitness for binding NBS DNA” value was no more than 0.2.

Turning to EPKT, the “one-hybrid fitness for binding NBS DNA” value is no more than 0.2.

For QIGV, the “one-hybrid fitness for binding NBS DNA” value was no more than 0.2.

Regarding TKQG, the “one-hybrid fitness for binding NBS DNA” value is no more than 0.2.

For the variant QTLY, the “one-hybrid fitness for binding NBS DNA” value is no more than 0.2.

In the case of EARE, the “one-hybrid fitness for binding NBS DNA” value is no more than 0.2.

For the variant NEEV, the “one-hybrid fitness for binding NBS DNA” value was no more than 0.2.

For the variant YFTS, the “one-hybrid fitness for binding NBS DNA” value was no more than 0.2.

For the variant LNLG, the “one-hybrid fitness for binding NBS DNA” value was no more than 0.2.

Consider IVHC, for which the “one-hybrid fitness for binding NBS DNA” value is no more than 0.2.

Turning to RNHS, the “one-hybrid fitness for binding NBS DNA” value turned out to be 0.238.

With NDCV, the “one-hybrid fitness for binding NBS DNA” value is no more than 0.2.

Consider TDRS, for which the “one-hybrid fitness for binding NBS DNA” value is no more than 0.2.

Regarding LWHR, the “one-hybrid fitness for binding NBS DNA” value is no more than 0.2.

As for YFFT, the “one-hybrid fitness for binding NBS DNA” value was no more than 0.2.

Take NQAM: the “one-hybrid fitness for binding NBS DNA” value is no more than 0.2.

Regarding PNNR, the “one-hybrid fitness for binding NBS DNA” value was no more than 0.2.

With RRFE, the “one-hybrid fitness for binding NBS DNA” value was no more than 0.2.

As for MSCV, the “one-hybrid fitness for binding NBS DNA” value was no more than 0.2.

In the case of RFEQ, the “one-hybrid fitness for binding NBS DNA” value is no more than 0.2.

Consider ADGS, for which the “one-hybrid fitness for binding NBS DNA” value is no more than 0.2.

Take WASV: the “one-hybrid fitness for binding NBS DNA” value is no more than 0.2.

CVKT: the “one-hybrid fitness for binding NBS DNA” value was no more than 0.2.

Turning to NDMW, the “one-hybrid fitness for binding NBS DNA” value is no more than 0.2.

In the case of QPMG, the “one-hybrid fitness for binding NBS DNA” value is no more than 0.2.

Regarding HIKC, the “one-hybrid fitness for binding NBS DNA” value is no more than 0.2.

Consider VNTA, for which the “one-hybrid fitness for binding NBS DNA” value was no more than 0.2.

As for EFCR, the “one-hybrid fitness for binding NBS DNA” value was no more than 0.2.

As to RKKH, the “one-hybrid fitness for binding NBS DNA” value was found to be 0.465.

Take YRSF: the “one-hybrid fitness for binding NBS DNA” value is no more than 0.2.

AIPR: the “one-hybrid fitness for binding NBS DNA” value is no more than 0.2.

As for WSAG, the “one-hybrid fitness for binding NBS DNA” value is no more than 0.2.

Regarding GRHC, the “one-hybrid fitness for binding NBS DNA” value is no more than 0.2.

Take CWDS: the “one-hybrid fitness for binding NBS DNA” value is no more than 0.2.

On to VQSA, for which the “one-hybrid fitness for binding NBS DNA” value is no more than 0.2.

Turning to QTEH, the “one-hybrid fitness for binding NBS DNA” value is no more than 0.2.

In the case of ALHY, the “one-hybrid fitness for binding NBS DNA” value was no more than 0.2.

For ISTH, the “one-hybrid fitness for binding NBS DNA” value is no more than 0.2.

FLAS: the “one-hybrid fitness for binding NBS DNA” value was no more than 0.2.

Consider STRL, for which the “one-hybrid fitness for binding NBS DNA” value is no more than 0.2.

For the variant VIRS, the “one-hybrid fitness for binding NBS DNA” value was no more than 0.2.

As for KHAA, the “one-hybrid fitness for binding NBS DNA” value was no more than 0.2.

As to QDSR, the “one-hybrid fitness for binding NBS DNA” value was 0.207.

For the variant QLCK, the “one-hybrid fitness for binding NBS DNA” value was no more than 0.2.

AAVN: the “one-hybrid fitness for binding NBS DNA” value was no more than 0.2.

Take NRYK: the “one-hybrid fitness for binding NBS DNA” value is no more than 0.2.

As for VSSS, the “one-hybrid fitness for binding NBS DNA” value is no more than 0.2.

In the case of ILQF, the “one-hybrid fitness for binding NBS DNA” value is no more than 0.2.

On to TGET, for which the “one-hybrid fitness for binding NBS DNA” value is no more than 0.2.

Turning to RQST, the “one-hybrid fitness for binding NBS DNA” value is 0.474.

On to EYIG, for which the “one-hybrid fitness for binding NBS DNA” value is no more than 0.2.

On to GMES, for which the “one-hybrid fitness for binding NBS DNA” value is no more than 0.2.

Regarding AVAR, the “one-hybrid fitness for binding NBS DNA” value is no more than 0.2.

Consider SYGK, for which the “one-hybrid fitness for binding NBS DNA” value was no more than 0.2.

For KDMM, the “one-hybrid fitness for binding NBS DNA” value was no more than 0.2.

Regarding LMTM, the “one-hybrid fitness for binding NBS DNA” value is no more than 0.2.

Take GTDD: the “one-hybrid fitness for binding NBS DNA” value was no more than 0.2.

Turning to YADR, the “one-hybrid fitness for binding NBS DNA” value was no more than 0.2.

On to GVGV, for which the “one-hybrid fitness for binding NBS DNA” value was no more than 0.2.

HYES: the “one-hybrid fitness for binding NBS DNA” value was no more than 0.2.

On to ENQT, for which the “one-hybrid fitness for binding NBS DNA” value was no more than 0.2.

On to CTTY, for which the “one-hybrid fitness for binding NBS DNA” value is no more than 0.2.

Consider GQWY, for which the “one-hybrid fitness for binding NBS DNA” value was no more than 0.2.

With EMMI, the “one-hybrid fitness for binding NBS DNA” value is no more than 0.2.

For the origin of these results see a collection of fitness landscapes (doi:10.1016/j.celrep.2020.107928).
